# No constants are given. Whether binding was seen depends on the method and setting. Some entries that bind do so weakly or less than the wild type.
# By UniProt entry, the sequences of proteins in these tests, tags left out.
# UniProt Q7Z494: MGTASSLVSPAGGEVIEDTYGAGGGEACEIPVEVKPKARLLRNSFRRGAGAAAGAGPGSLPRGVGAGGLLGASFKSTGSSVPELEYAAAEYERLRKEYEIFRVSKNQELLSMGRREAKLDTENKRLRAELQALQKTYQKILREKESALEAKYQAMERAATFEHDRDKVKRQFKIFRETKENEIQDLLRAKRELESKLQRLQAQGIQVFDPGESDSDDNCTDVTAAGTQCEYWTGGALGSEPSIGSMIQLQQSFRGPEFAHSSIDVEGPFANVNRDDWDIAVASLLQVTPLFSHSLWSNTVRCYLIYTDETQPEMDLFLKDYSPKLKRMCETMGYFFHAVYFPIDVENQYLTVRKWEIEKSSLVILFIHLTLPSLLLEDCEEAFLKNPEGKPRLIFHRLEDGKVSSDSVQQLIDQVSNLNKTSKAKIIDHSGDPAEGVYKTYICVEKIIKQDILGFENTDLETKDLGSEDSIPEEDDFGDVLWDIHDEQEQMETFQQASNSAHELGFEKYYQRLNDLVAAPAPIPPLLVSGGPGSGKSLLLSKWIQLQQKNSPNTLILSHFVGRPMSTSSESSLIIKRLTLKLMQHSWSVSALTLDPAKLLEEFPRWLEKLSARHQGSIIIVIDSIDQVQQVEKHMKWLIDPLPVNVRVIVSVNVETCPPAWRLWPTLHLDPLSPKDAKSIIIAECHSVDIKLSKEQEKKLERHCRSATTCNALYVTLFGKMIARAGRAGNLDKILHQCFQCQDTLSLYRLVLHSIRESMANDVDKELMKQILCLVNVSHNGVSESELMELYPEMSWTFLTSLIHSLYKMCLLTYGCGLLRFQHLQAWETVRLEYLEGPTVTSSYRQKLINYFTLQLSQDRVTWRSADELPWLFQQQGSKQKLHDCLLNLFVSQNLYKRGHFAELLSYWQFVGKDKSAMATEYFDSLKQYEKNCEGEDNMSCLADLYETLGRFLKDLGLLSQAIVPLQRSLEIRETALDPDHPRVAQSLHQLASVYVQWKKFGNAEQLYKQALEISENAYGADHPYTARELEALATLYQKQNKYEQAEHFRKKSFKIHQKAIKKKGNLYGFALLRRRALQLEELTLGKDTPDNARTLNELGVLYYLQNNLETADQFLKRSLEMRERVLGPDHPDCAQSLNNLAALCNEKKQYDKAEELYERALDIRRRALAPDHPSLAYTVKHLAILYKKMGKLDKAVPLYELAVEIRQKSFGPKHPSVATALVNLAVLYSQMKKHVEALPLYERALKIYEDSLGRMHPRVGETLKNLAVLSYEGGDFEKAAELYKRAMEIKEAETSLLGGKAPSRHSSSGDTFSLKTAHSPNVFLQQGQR
# T1: Nup88 (human) (UniProt Q99567)
# T1 sequence: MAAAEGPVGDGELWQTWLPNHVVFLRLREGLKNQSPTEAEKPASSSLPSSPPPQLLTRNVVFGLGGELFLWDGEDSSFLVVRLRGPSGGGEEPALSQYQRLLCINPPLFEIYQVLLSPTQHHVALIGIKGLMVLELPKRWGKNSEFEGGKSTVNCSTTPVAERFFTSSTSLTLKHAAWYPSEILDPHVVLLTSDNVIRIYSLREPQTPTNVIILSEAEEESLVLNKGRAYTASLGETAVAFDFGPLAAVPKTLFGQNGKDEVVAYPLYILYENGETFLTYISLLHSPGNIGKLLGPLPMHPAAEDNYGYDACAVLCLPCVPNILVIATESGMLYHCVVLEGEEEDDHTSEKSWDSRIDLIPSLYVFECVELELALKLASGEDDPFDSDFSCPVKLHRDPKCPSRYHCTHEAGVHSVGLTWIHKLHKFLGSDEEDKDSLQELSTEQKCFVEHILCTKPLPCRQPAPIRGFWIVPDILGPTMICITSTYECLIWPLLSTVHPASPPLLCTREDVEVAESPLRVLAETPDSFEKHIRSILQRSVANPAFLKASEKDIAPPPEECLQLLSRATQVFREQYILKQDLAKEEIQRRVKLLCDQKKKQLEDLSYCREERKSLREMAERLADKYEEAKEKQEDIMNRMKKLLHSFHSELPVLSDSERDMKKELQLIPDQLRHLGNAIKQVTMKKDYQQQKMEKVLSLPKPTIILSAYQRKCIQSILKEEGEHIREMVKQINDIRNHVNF
# T2: Nup155 (human) (UniProt O75694)
# T2 sequence: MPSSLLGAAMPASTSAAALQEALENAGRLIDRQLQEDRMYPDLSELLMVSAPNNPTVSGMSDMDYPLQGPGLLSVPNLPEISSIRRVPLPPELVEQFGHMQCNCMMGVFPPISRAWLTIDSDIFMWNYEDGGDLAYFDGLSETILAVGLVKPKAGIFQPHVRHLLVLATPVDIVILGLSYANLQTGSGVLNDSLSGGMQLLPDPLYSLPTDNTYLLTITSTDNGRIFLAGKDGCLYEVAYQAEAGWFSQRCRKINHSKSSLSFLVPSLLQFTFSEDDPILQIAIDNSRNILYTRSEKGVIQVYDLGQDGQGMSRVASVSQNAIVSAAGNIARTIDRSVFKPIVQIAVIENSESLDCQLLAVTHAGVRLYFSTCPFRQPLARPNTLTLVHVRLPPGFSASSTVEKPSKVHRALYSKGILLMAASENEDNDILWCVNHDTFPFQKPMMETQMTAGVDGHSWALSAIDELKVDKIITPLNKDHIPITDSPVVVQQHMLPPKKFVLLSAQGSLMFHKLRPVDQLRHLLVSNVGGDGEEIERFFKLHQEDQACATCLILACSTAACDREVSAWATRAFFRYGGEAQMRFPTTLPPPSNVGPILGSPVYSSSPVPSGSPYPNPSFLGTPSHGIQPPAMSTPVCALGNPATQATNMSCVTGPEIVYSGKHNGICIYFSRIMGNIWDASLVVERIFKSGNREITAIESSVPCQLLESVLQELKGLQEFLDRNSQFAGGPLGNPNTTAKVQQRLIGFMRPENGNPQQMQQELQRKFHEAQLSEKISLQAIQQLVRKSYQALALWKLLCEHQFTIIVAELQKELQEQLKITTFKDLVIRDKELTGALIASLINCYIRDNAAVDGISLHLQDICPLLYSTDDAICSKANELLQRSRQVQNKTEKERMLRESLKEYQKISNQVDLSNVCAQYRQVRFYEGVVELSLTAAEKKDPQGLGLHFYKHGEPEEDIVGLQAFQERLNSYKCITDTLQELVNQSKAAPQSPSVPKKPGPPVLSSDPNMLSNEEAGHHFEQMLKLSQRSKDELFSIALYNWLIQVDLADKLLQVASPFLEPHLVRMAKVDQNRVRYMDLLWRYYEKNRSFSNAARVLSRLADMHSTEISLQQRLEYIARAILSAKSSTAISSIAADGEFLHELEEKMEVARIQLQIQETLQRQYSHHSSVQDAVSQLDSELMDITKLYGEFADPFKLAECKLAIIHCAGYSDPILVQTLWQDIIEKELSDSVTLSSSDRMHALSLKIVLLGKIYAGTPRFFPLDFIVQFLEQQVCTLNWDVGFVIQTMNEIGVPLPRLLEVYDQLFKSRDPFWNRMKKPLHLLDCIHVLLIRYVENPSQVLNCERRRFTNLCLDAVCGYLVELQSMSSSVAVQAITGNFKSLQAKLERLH
# T3: Nup133 (human) (UniProt Q8WUM0)
# T3 sequence: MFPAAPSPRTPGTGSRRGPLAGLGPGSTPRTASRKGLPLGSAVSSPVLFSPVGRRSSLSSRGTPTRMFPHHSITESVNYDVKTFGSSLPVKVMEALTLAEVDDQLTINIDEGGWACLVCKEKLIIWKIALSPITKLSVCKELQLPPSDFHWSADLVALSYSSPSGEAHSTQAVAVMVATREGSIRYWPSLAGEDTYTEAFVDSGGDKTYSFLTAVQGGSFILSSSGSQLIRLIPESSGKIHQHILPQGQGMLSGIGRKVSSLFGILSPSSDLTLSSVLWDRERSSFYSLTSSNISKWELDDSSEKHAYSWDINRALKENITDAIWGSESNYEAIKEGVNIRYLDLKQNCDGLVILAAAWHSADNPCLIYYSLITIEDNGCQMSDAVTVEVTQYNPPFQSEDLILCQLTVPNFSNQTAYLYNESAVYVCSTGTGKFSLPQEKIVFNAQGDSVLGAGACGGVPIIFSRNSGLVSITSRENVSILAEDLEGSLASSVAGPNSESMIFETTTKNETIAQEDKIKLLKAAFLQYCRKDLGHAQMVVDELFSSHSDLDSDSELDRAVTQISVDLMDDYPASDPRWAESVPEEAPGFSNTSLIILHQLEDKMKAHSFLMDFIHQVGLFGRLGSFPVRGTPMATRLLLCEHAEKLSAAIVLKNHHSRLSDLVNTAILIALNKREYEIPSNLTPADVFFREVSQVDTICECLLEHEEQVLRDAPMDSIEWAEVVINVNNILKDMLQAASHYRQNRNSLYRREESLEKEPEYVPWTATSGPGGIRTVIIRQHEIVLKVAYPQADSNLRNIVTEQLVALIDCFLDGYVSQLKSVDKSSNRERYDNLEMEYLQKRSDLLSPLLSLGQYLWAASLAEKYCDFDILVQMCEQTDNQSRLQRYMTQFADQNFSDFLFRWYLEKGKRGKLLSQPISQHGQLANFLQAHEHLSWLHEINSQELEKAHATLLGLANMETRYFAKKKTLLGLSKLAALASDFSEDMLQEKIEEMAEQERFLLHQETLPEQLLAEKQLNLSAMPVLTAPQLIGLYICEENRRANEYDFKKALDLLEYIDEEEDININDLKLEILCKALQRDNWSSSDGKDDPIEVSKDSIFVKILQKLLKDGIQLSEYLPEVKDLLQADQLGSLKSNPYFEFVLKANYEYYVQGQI
# T4: Nup43 (human) (UniProt Q8NFH3)
# T4 sequence: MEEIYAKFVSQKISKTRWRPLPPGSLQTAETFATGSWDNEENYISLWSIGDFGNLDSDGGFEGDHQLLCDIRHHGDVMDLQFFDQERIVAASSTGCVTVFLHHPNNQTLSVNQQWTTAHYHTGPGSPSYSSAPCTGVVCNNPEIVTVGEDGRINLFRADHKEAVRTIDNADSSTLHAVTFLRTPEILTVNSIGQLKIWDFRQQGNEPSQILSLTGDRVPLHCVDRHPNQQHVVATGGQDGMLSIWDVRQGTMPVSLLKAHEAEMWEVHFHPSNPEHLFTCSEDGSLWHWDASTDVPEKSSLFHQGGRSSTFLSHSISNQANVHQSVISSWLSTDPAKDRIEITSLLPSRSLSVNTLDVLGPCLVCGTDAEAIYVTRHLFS
# How the values were obtained:
# Assay in all cases: two-hybrid; directed yeast two-hybrid by mating: AH109 with pGBKT7 (BD, bait) fusions x Y187 with pACT2 (AD, prey) fusions; growth on -leu,-trp,-his plates scored as strong, medium or weak; each mating repeated at least three times
# NPHP3 (human) = NPHP3 (human) (UniProt Q7Z494)
# Nup88 (human) = target: T1, Nup88 (human)
# Nup155 (human) = target: T2, Nup155 (human)
# Nup133 (human) = target: T3, Nup133 (human)
# Nup43 (human) = target: T4, Nup43 (human)
binding (NPHP3 (human)),binding (Nup88 (human)),binding (Nup155 (human)),binding (Nup133 (human)),binding (Nup43 (human)),Molecule
binds,,,,,NPHP3 (from UniProt Q7Z494 1-1330)
,binds,binds,binds,,"NPHP5 (IQCB1) (protein, UniProt Q8BP00 1-598) MKPAGTDPRILSLAAEVAKSPEQNVPVILLKLKEIINNTPLGSSELKKVKQDIYCYDLIQYCLLVLSQDSSRIQGGWSTISQLTQILSHCCVGLEPGEDGEEFYKELLPSAAENFLILGRRLQTCFINATKGEEQDKLLHFFQIVTDSLFWLLGGHVQLIQNVLQSDHFLHLLQTDNVQIGASVMTLLQNILQINSGNLLKIEGKALHSILDEILFKLLSTPSPVIRSTATKLLLVLAESHQEILILLRLSACYKGLRSLLNKQETLTEFSRELRQLVDLLTPKIHQEVEEQKLHKAACLIQAYWKGFQTRKRLKKLPSAVIALQRSFRSKRTKMMLELNRQKEEEDLRLKLQLQRQRAMRLSRESRLNMLEIIHPGQVEKYNREMEEKSALTIQKHWRGYRERKNFRQQRPSLTEYKAAVTLQRAVLKFLAKCRKKKKLFASWHGLQELTDARRVELKQQVDDYVKRHPCSQMSEAASRELHAQAQERLQHYFMGRAIEERAQQHREALMAQISTNIEQLMKAPSLKEAEGKEPEQFLSRSRPVAAKAKQAHLTTLKHIQAPWWKKLGEEPGDEVDVPKDELSIDLGMLFIGGTKPP"
,,binds,binds weakly,binds weakly,"NPHP9 (NEK8) (protein, UniProt Q86SG6 1-692) MEKYERIRVVGRGAFGIVHLCLRKADQKLVIIKQIPVEQMTKEERQAAQNECQVLKLLNHPNVIEYYENFLEDKALMIAMEYAPGGTLAEFIQKRCNSLLEEETILHFFVQILLALHHVHTHLILHRDLKTQNILLDKHRMVVKIGDFGISKILSSKSKAYTVVGTPCYISPELCEGKPYNQKSDIWALGCVLYELASLKRAFEAANLPALVLKIMSGTFAPISDRYSPELRQLVLSLLSLEPAQRPPLSHIMAQPLCIRALLNLHTDVGSVRMRRAEKSVAPSNTGSRTTSVRCRGIPRGPVRPAIPPPLSSVYAWGGGLGTPLRLPMLNTEVVQVAAGRTQKAGVTRSGRLILWEAPPLGAGGGSLLPGAVEQPQPQFISRFLEGQSGVTIKHVACGDFFTACLTDRGIIMTFGSGSNGCLGHGSLTDISQPTIVEALLGYEMVQVACGASHVLALSTERELFAWGRGDSGRLGLGTRESHSCPQQVPMPPGQEAQRVVCGIDSSMILTVPGQALACGSNRFNKLGLDHLSLGEEPVPHQQVEEALSFTLLGSAPLDQEPLLSIDLGTAHSAAVTASGDCYTFGSNQHGQLGTNTRRGSRAPCKVQGLEGIKMAMVACGDAFTVAIGAESEVYSWGKGARGRLGRRDEDAGLPRPVQLDETHPYTVTSVSCCHGNTLLAVRSVTDEPVPP"

# — PMC6760808
